In PMC4336329 (PLoS ONE, 2015):
The campaign covered roughly 310,000 compounds. About 2,200 (0.71%) showed an effect of 50% or more. Effects have a minus sign here. The list shows a part of the results.

molecular target: human ether-à-go-go-related gene (hERG) potassium channel (human, UniProt Q12809); test: primary screen, population patch clamp on CHO cells stably expressing hERG
Sequence (Q12809 whole entry, looked up): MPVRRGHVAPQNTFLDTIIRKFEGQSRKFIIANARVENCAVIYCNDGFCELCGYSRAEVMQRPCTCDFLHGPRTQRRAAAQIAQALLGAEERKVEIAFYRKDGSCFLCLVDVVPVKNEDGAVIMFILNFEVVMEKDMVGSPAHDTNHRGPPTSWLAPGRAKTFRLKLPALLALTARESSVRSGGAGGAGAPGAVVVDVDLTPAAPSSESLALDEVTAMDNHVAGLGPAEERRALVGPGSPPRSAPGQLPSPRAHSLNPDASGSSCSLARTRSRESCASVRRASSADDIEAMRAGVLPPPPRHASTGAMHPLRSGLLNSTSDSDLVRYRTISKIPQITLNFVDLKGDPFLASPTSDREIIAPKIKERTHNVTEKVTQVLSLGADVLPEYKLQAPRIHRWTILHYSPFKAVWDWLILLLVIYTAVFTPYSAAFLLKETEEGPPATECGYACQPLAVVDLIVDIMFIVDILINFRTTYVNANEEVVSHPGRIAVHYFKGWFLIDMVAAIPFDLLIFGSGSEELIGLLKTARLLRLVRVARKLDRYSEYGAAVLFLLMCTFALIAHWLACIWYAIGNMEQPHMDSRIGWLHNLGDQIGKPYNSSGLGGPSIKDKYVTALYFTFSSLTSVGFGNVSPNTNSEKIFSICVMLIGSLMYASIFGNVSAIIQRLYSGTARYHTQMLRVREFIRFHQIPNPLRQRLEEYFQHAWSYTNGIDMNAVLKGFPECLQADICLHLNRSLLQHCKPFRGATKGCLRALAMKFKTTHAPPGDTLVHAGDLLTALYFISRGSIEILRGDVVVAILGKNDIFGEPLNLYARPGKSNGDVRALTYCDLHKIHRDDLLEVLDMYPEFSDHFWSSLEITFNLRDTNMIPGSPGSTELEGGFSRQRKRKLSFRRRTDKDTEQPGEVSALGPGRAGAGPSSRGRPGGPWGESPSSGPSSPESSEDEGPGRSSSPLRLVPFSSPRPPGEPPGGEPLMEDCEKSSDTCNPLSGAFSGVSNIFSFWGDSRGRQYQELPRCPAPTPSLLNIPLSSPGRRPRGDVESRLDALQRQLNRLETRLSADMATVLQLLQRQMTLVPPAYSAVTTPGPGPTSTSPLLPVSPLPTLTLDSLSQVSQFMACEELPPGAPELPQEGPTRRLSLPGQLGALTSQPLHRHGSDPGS

First: CC1(C)C2CCC1(CS(=O)(=O)Nc1cccc(S(N)(=O)=O)c1)C(=O)C2 (centres unmarked)
Second: Cc1nn(Cc2ccccc2)c(C)c1C(=O)OCC(=O)Nc1cccc(S(N)(=O)=O)c1
The “hERG current change (%, negative = inhibition) at 1uM” value of the first is higher: 8.84% for the first, 2.52% for the second.

Compared with Cc1scc(C(=O)NNC(=S)NCc2ccccc2)c1C, C=CCNC(=S)Nc1c(C(=O)OC)[nH]c2cc(OC)ccc12 is higher in “hERG current change (%, negative = inhibition) at 1uM” value: 5.62% for the first, 15% for the second.

First: CCOc1ccc(NC(=S)N2CCC(N(C)CC3CCCO3)CC2)cc1 (centres unmarked)
Second: CCOC(=O)N1CCC(NC(=O)Cn2cc3c(n2)CCCC3)CC1
The “hERG current change (%, negative = inhibition) at 1uM” value of the first is higher: 7.86% for the first, 4.94% for the second.

First: CCN1CCN(CCCNC(=O)c2cc3c(=O)oc4ccc(C)cc4c3s2)CC1
Second: Cc1cc2oc(=O)cc(CN3CCCCC3)c2cc1O
The “hERG current change (%, negative = inhibition) at 1uM” value of the first is lower: 8.15% for the first, 15.1% for the second.

First: O=C(c1ccc(S(=O)(=O)N2CCOCC2)cc1)N1CCN(C2=NS(=O)(=O)c3ccccc32)CC1
Second: Cc1ccc(S(=O)(=O)c2cccc(S(=O)(=O)N3CCOCC3)c2)cc1S(=O)(=O)N1CCOCC1
The “hERG current change (%, negative = inhibition) at 1uM” value of the first is lower: -7.72% for the first, 19.3% for the second.

First: Cc1ccc(S(=O)(=O)Nc2ccc(N(C)S(=O)(=O)c3ccc(C)cc3)cc2)cc1
Second: O=C(Nc1cccc(S(=O)(=O)Nc2ccccc2Cl)c1)c1ccc(Cl)nc1
The “hERG current change (%, negative = inhibition) at 1uM” value of the first is higher: 13.9% for the first, -0.716% for the second.

Going from O=C(NCc1ccccc1)NC1(C(=O)N2CCN(c3ccccc3)CC2)CCCCC1 to Cc1ccc(S(=O)(=O)N[C@@H](Cc2ccccc2)C(=O)N2CCC(C(=O)N[C@H](C(=O)O)C(C)O)CC2)cc1 (some centres unmarked), the “hERG current change (%, negative = inhibition) at 1uM” value rises from 0.276% to 7.7%.

First: O=C(O)c1c2c(nc3ccccc13)/C(=C/c1ccccc1[N+](=O)[O-])CCC2
Second: COc1cc(-c2nc3ccc4ccccc4c3c3c2CCC3)ccc1O
The “hERG current change (%, negative = inhibition) at 1uM” value of the first is higher: 11.2% for the first, 10.4% for the second.

Going from Nc1nc(OCc2ccccc2)c2[nH]cnc2n1 to Nc1nc(NCc2ccccc2)nc(Nc2ccc(F)cc2)c1[N+](=O)[O-], the “hERG current change (%, negative = inhibition) at 1uM” value rises from 6.33% to 8.44%.

First: C=CCc1ccccc1OCC(O)CN1CCN(c2ccc(C)cc2)CC1 (centres unmarked)
Second: COc1ccc(-c2nc(-c3ccccn3)nc(N3CCN(C)CC3)c2C#N)cc1
The “hERG current change (%, negative = inhibition) at 1uM” value of the first is lower: -7.69% for the first, 7.89% for the second.

Compared with CCOC(=O)c1cc2ccc3ccccc3c2s1.O=C(O)CCCCC(=O)O, O=C(CCCC(=O)N(CC(=O)NC1CCCC1)c1ccc(F)c(Cl)c1)Nc1ccccn1 is lower in “hERG current change (%, negative = inhibition) at 1uM” value: 13.6% for the first, 7.4% for the second.

Compared with COc1ccccc1C(=O)NCCC(=O)N1CCCC(C(F)(F)F)C1 (centres unmarked), COc1ccc(CCNCC(=O)Nc2ccc(OC(F)(F)F)cc2)cc1OC.Cl is lower in “hERG current change (%, negative = inhibition) at 1uM” value: 21.4% for the first, -4.82% for the second.

First: N#Cc1c2n(c3c(=O)n(CC(=O)c4ccc([N+](=O)[O-])cc4)cnc13)CCCCC2
Second: O=C(COc1cccc(Cl)c1Cl)Nc1ccc2c(c1)CCC2
The “hERG current change (%, negative = inhibition) at 1uM” value of the first is lower: 1.72% for the first, 13.2% for the second.

Going from Cc1[nH]c2ccccc2c1SCC(=O)N1CCCc2ccccc21 to O=C(NCC(c1ccco1)N1CCc2ccccc2C1)c1cccc(F)c1 (centres unmarked), the “hERG current change (%, negative = inhibition) at 1uM” value falls from 16.5% to -23.9%.

Compared with CN1CCCN(c2ccc([N+](=O)[O-])nc2)CC1, COc1ccc(F)cc1S(=O)(=O)N1CCCCC1 is lower in “hERG current change (%, negative = inhibition) at 1uM” value: 18.7% for the first, -0.707% for the second.

First: COc1ccccc1NS(=O)(=O)c1cc(NC(=O)CC(C)(C)C)ccc1N1CCOCC1
Second: COc1ccccc1NC(=O)c1ccc(NC(=O)c2ccco2)cc1
The “hERG current change (%, negative = inhibition) at 1uM” value of the first is higher: 6.17% for the first, 1.05% for the second.

Going from COc1ccc(-c2cn(CCC(=O)O)c(-c3ccc(Cl)nc3)n2)cc1 to Cc1cc(-c2ccccc2)nc2cc(C(=O)NCCCn3ccnc3)nn12, the “hERG current change (%, negative = inhibition) at 1uM” value falls from 5.57% to 1.58%.

Going from OCCN(CC#CC(O)(c1ccccc1)c1ccccc1)CCO to O=C(N/N=C/c1ccccc1O)c1cccc2ccccc12, the “hERG current change (%, negative = inhibition) at 1uM” value rises from 13.3% to 17.3%.

Compared with Cn1c(-c2ccc3c(c2)OCO3)cnc1N, O=C(NCCS(=O)(=O)NCc1ccccc1Cl)c1ccc2c(c1)OCO2 is higher in “hERG current change (%, negative = inhibition) at 1uM” value: 4.58% for the first, 8.74% for the second.

First: O=C(CC1CC2CCC1C2)NCCc1ccc(Cl)cc1 (centres unmarked)
Second: CCN1CCN(S(=O)(=O)c2ccc(S(=O)(=O)NC3CC3)cc2)CC1
The “hERG current change (%, negative = inhibition) at 1uM” value of the first is lower: -0.305% for the first, 4.64% for the second.

Compared with O=C(O)c1ccc2c(c1)C(=O)N(c1nccs1)C2=O, COc1ccccc1CNS(=O)(=O)c1c(C)nc2sccn2c1=O is higher in “hERG current change (%, negative = inhibition) at 1uM” value: 7.31% for the first, 12.8% for the second.

First: CC(C)OC(=O)c1c(N)n(Cc2ccco2)c2nc3ccccc3nc12
Second: COc1ccc2nc(NC(=O)CC3Oc4ccccc4NC3=O)sc2c1 (centres unmarked)
The “hERG current change (%, negative = inhibition) at 1uM” value of the first is lower: 0.554% for the first, 13.1% for the second.

First: CC(=O)Nc1sc(C)c(C)c1C(=O)OC(C)C
Second: CC(=O)Oc1ccc(C(=O)Nc2cc(C)on2)cc1
The “hERG current change (%, negative = inhibition) at 1uM” value of the first is higher: 14.6% for the first, 13.5% for the second.

First: S=C(NC1CCCCCC1)NC1CCCC1
Second: COc1cccc(C2NC(=O)NC(C)=C2C(=O)OCC2CCCCC2)c1 (centres unmarked)
The “hERG current change (%, negative = inhibition) at 1uM” value of the first is lower: 5.91% for the first, 13.4% for the second.

First: CCOC(=O)N1CCN(C(=S)NCCOC)CC1
Second: COCCNC(=S)N/N=C(\C)c1cccc([N+](=O)[O-])c1
The “hERG current change (%, negative = inhibition) at 1uM” value of the first is higher: 15.6% for the first, -12.2% for the second.

Going from COc1cc(C2C(C(=O)OCCC#N)=C(C)NC3=C2S(=O)(=O)c2ccccc23)cc(OC)c1OC (centres unmarked) to COc1ccc(CCN(C)C(=O)CNC(=O)c2ccc3c(c2)OCO3)cc1OC, the “hERG current change (%, negative = inhibition) at 1uM” value rises from -2.47% to 14.6%.

Compared with O=C(CSc1cccc(C(F)(F)F)c1)Nc1ccc(Cl)cc1Cl, O=C1CCc2cc(S(=O)(=O)Nc3ccc(C(F)(F)F)cc3)cc3c2N1CC3 is higher in “hERG current change (%, negative = inhibition) at 1uM” value: 3.96% for the first, 4.87% for the second.

First: CCc1ccc(C2C(C#N)=C(N)SC(N)=C2C#N)s1
Second: Cc1cc(C)cc(NC(=O)C(OC(=O)c2cc[n+]([O-])cc2)c2ccccc2)c1 (centres unmarked)
The “hERG current change (%, negative = inhibition) at 1uM” value of the first is higher: 19.2% for the first, -11.1% for the second.
